# Assay results from the supplement of paper PMC8728848.
# The other results are listed elsewhere or left out.
# B1: CwpV (Clostridium difficile), B6EFG6 (protein)
# chain: MKIPKKIAAMLTVTMIAGSSTAGIASAQTVATNLTGQERYETAVKISQDGWKNADEVVIVNDSSIADALSATPFAKAKNAPILLTSKDKLNDKTKAEIQRLKAKKVYLIGGTSVLSTNIEKEIKDLKISFERISGAERYQTSLELAKKLDAISDVKKIAVVNGEKGLADAVSVGAPAAQNNMPVILADSKNGTAVADKFIKDAGITQSYVVGGESSISEAVKNKLPNSTRLGGTDRNDTNAKVIKEFYKKTDLKNAYVTKDGMNKQDQLIDALAVGVLGAKNQSPVVLVGKNLSASQKSLVNSKSFDKITKVGGNGNETAFNEMKSLQEVKTVEAKTISELKSAIDKATANDVINFKPTSEVKEAFTIQTDKAVTVNLNGTYTKTVTINMPNGDVNNYAKVDDVVIDDVKDGTFVNYGKITNLKVNDKNGAKIENNSKGEIGSLTVASGASQVKVTNGGKITTVTNNSKGTTIDNKGTISSVKGDNSPTISGNSPSSNSSGGSSSSGGSSGGSSGGSSSSKVGQIKFSATDKQIKMASGDKTVDPSDNTYILKLTNGTVKDGDVKANVKVAGLPSGLDYTAVGNRSANTITITVSGTTSQSIQNDLNNVSVLVKAGAVSGTGATDSIANTTFEIKKYVAAPAVGQLTFDATDKQIKMASGDKTVDPSDDTYVLTLTKGTAKDGDIKANVEVTGLPSGLDYTAEGDSSANTITIPVSGTASPAVQTDLDNVSVLVKAGAVSETTATDSAANATFEVKKYVAPAVGQLTFDATDKQIKMASGDKTVDPSDDTYVLTLTKGTAKDGDIKANVEVTGLPSGLDYTAEGDSSANTITITVSGTASQAVQTDLDNVSVLVKAGAVSETTATDSAANATFEVKKYVAPAIGQLTFDATDKQIKMASGDKTVDPSDDTYVLTLTKGTAKDGDIKANVEVTGLPSGLDYTAEGDSSANTITITVSGTASQAVQTDLDNVSVLVKAGAVSETTATDSAANATFEVKKHASDPISTIGKISSGLSSLFNILK
# Tests used:
# Assay in all cases: glycan array binding signal (z-score within array); higher = stronger binding
# Settings in all cases: glycan notation: IUPAC condensed, linker removed
# [1] = target: Gal4S6S(b1-4)GlcNAc
# In short: (§1)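 The binding signal is a Z-score computed within each array. Data were drawn from 3228 arrays in the Consortium for Functional Glycomics database, restricted to those with a known protein sequence. Scores were averaged over arrays of the same protein sequence at different concentrations or buffers, and over linkers, and negative values can be taken as non-binding.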
# [2] = target: Gal6S(b1-3)GlcNAc
# In short: as §1
# [3] = target: Gal6S(b1-3)GlcNAc6S
# In short: as §1
# [4] = target: Gal6S(b1-4)Glc
# In short: as §1
# [5] = target: Gal6S(b1-4)Glc6S
# In short: as §1
# [6] = target: Gal6S(b1-4)GlcNAc
# In short: as §1
# [7] = target: Gal6S(b1-4)GlcNAc6S
# In short: as §1
# [8] = target: GalNAc(a1-3)Gal
# In short: as §1
# [9] = target: GalNAc(a1-3)GalNAc
# In short: as §1
# [10] = target: GalNAc(a1-3)GalNAc(a1-3)Gal(a1-4)Gal(b1-4)GlcNAc
# In short: as §1
# [11] = target: GalNAc(a1-3)GalNAc(b1-3)Gal(a1-4)Gal(b1-4)Glc
# In short: as §1
# [12] = target: GalNAc(b1-3)Gal
# In short: as §1
# [13] = target: GalNAc(b1-3)Gal(a1-4)Gal(b1-4)GlcNAc
# In short: as §1
# [14] = target: GalNAc(b1-3)Gal(a1-4)Gal(b1-4)GlcNAc(b1-3)Gal(b1-4)Glc
# In short: as §1
# [15] = target: GalNAc(b1-3)Gal(a1-6)Gal(b1-4)Glc
# In short: as §1
# [16] = target: GalNAc(b1-3)GalNAc
# In short: as §1
# [17] = target: GalNAc(b1-4)GlcNAc
# In short: as §1
# [18] = target: GalNAc(b1-4)GlcNAc(b1-2)Man(a1-3)[GalNAc(b1-4)GlcNAc(b1-2)Man(a1-6)]Man(b1-4)GlcNAc(b1-4)GlcNAc
# In short: as §1
# [19] = target: GalNAc(b1-6)GalNAc
# In short: as §1
# [20] = target: Glc(a1-4)Glc
# In short: as §1
# [21] = target: Glc(a1-6)Glc(a1-6)Glc
# In short: as §1
# [22] = target: Glc(b1-4)Glc
# In short: as §1
# [23] = target: Glc(b1-6)Glc
# In short: as §1
# [24] = target: GlcA(b1-3)Gal
# In short: as §1
# [25] = target: GlcA(b1-3)GlcNAc
# In short: as §1
# [26] = target: GlcA(b1-6)Gal
# In short: as §1
# [27] = target: GlcNAc(a1-3)Gal(b1-4)GlcNAc
# In short: as §1
# [28] = target: GlcNAc(a1-4)Gal(b1-3)GlcNAc
# In short: as §1
# [29] = target: GlcNAc(a1-4)Gal(b1-4)GalNAc
# In short: as §1
# [30] = target: GlcNAc(a1-4)Gal(b1-4)GlcNAc
# In short: as §1
# [31] = target: GlcNAc(a1-4)Gal(b1-4)GlcNAc(b1-3)Gal(b1-4)Glc
# In short: as §1
# [32] = target: GlcNAc(a1-4)Gal(b1-4)GlcNAc(b1-3)Gal(b1-4)GlcNAc
# In short: as §1
# [33] = target: GlcNAc(a1-4)Gal(b1-4)GlcNAc(b1-3)Gal(b1-4)GlcNAc(b1-3)Gal(b1-4)GlcNAc
# In short: as §1
# [34] = target: GlcNAc(a1-4)Gal(b1-4)GlcNAc(b1-3)Gal(b1-4)[Fuc(a1-3)]GlcNAc(b1-3)Gal(b1-4)[Fuc(a1-3)]GlcNAc
# In short: as §1
# [35] = target: GlcNAc(a1-6)Gal(b1-4)GlcNAc
# In short: as §1
# [36] = target: GlcNAc(b1-2)Gal(b1-3)GalNAc
# In short: as §1
# [37] = target: GlcNAc(b1-2)Man(a1-3)[GlcNAc(b1-2)Man(a1-6)]Man(b1-4)GlcNAc(b1-4)GlcNAc
# In short: as §1
# [38] = target: GlcNAc(b1-2)Man(a1-3)[GlcNAc(b1-2)Man(a1-6)]Man(b1-4)GlcNAc(b1-4)[Fuc(a1-6)]GlcNAc
# In short: as §1
# [39] = target: GlcNAc(b1-2)Man(a1-3)[GlcNAc(b1-4)][GlcNAc(b1-2)Man(a1-6)]Man(b1-4)GlcNAc(b1-4)GlcNAc
# In short: as §1
# [40] = target: GlcNAc(b1-2)[GlcNAc(b1-4)]Man(a1-3)[GlcNAc(b1-2)Man(a1-6)]Man(b1-4)GlcNAc(b1-4)GlcNAc
# In short: as §1
# [41] = target: GlcNAc(b1-2)[GlcNAc(b1-4)]Man(a1-3)[GlcNAc(b1-4)][GlcNAc(b1-2)Man(a1-6)]Man(b1-4)GlcNAc(b1-4)GlcNAc
# In short: as §1
# [42] = target: GlcNAc(b1-2)[GlcNAc(b1-4)]Man(a1-3)[GlcNAc(b1-4)][GlcNAc(b1-2)[GlcNAc(b1-6)]Man(a1-6)]Man(b1-4)GlcNAc(b1-4)GlcNAc
# In short: as §1
# [43] = target: GlcNAc(b1-2)[GlcNAc(b1-6)]Man(a1-6)[GlcNAc(b1-2)Man(a1-3)]Man(b1-4)GlcNAc(b1-4)GlcNAc
# In short: as §1
# [44] = target: GlcNAc(b1-2)[GlcNAc(b1-6)]Man(a1-6)[GlcNAc(b1-2)Man(a1-3)][GlcNAc(b1-4)]Man(b1-4)GlcNAc(b1-4)GlcNAc
# In short: as §1
# [45] = target: GlcNAc(b1-3)Gal
# In short: as §1
# [46] = target: GlcNAc(b1-3)Gal(b1-3)GalNAc
# In short: as §1
# [47] = target: GlcNAc(b1-3)Gal(b1-4)Glc
# In short: as §1
# [48] = target: GlcNAc(b1-3)Gal(b1-4)GlcNAc
# In short: as §1
# [49] = target: GlcNAc(b1-3)Gal(b1-4)GlcNAc(b1-3)Gal(b1-4)GlcNAc
# In short: as §1
# [50] = target: GlcNAc(b1-3)GalNAc
# In short: as §1
# [51] = target: GlcNAc(b1-3)Man
# In short: as §1
# [52] = target: GlcNAc(b1-3)[GlcNAc(b1-4)][GlcNAc(b1-6)]GlcNAc
# In short: as §1
# [53] = target: GlcNAc(b1-3)[GlcNAc(b1-6)]Gal(b1-4)GlcNAc
# In short: as §1
# [54] = target: GlcNAc(b1-3)[GlcNAc(b1-6)]GalNAc
# In short: as §1
# [55] = target: GlcNAc(b1-4)Gal(b1-4)GlcNAc
# In short: as §1
# [56] = target: GlcNAc(b1-4)GlcNAc
# In short: as §1
# [57] = target: GlcNAc(b1-4)GlcNAc(b1-4)GlcNAc
# In short: as §1
# [58] = target: GlcNAc(b1-4)GlcNAc(b1-4)GlcNAc(b1-4)GlcNAc(b1-4)GlcNAc
# In short: as §1
# [59] = target: GlcNAc(b1-4)GlcNAc(b1-4)GlcNAc(b1-4)GlcNAc(b1-4)GlcNAc(b1-4)GlcNAc
# In short: as §1
# [60] = target: GlcNAc(b1-4)[GlcNAc(b1-6)]GalNAc
# In short: as §1
binder,measurement,setting,value
B1,glycan array binding signal (z-score),[1],-0.266
same,glycan array binding signal (z-score),[2],-0.246
same,glycan array binding signal (z-score),[3],-0.347
same,glycan array binding signal (z-score),[4],-0.318
same,glycan array binding signal (z-score),[5],-0.31
same,glycan array binding signal (z-score),[6],-0.29
same,glycan array binding signal (z-score),[7],-0.316
same,glycan array binding signal (z-score),[8],-0.339
same,glycan array binding signal (z-score),[9],-0.235
same,glycan array binding signal (z-score),[10],0.986
same,glycan array binding signal (z-score),[11],2.1
same,glycan array binding signal (z-score),[12],-0.333
same,glycan array binding signal (z-score),[13],0.762
same,glycan array binding signal (z-score),[14],6.4
same,glycan array binding signal (z-score),[15],2.68
same,glycan array binding signal (z-score),[16],-0.322
same,glycan array binding signal (z-score),[17],0.432
same,glycan array binding signal (z-score),[18],-0.06
same,glycan array binding signal (z-score),[19],1.46
same,glycan array binding signal (z-score),[20],-0.288
same,glycan array binding signal (z-score),[21],-0.21
same,glycan array binding signal (z-score),[22],-0.296
same,glycan array binding signal (z-score),[23],-0.268
same,glycan array binding signal (z-score),[24],-0.343
same,glycan array binding signal (z-score),[25],8.78
same,glycan array binding signal (z-score),[26],-0.341
same,glycan array binding signal (z-score),[27],-0.125
same,glycan array binding signal (z-score),[28],-0.16
same,glycan array binding signal (z-score),[29],-0.136
same,glycan array binding signal (z-score),[30],-0.192
same,glycan array binding signal (z-score),[31],-0.156
same,glycan array binding signal (z-score),[32],1.04
same,glycan array binding signal (z-score),[33],0.147
same,glycan array binding signal (z-score),[34],0.469
same,glycan array binding signal (z-score),[35],-0.317
same,glycan array binding signal (z-score),[36],-0.207
same,glycan array binding signal (z-score),[37],-0.124
same,glycan array binding signal (z-score),[38],-0.045
same,glycan array binding signal (z-score),[39],-0.279
same,glycan array binding signal (z-score),[40],-0.306
same,glycan array binding signal (z-score),[41],-0.317
same,glycan array binding signal (z-score),[42],-0.323
same,glycan array binding signal (z-score),[43],-0.21
same,glycan array binding signal (z-score),[44],-0.331
same,glycan array binding signal (z-score),[45],-0.279
same,glycan array binding signal (z-score),[46],-0.217
same,glycan array binding signal (z-score),[47],-0.297
same,glycan array binding signal (z-score),[48],0.234
same,glycan array binding signal (z-score),[49],0.635
same,glycan array binding signal (z-score),[50],-0.322
same,glycan array binding signal (z-score),[51],-0.319
same,glycan array binding signal (z-score),[52],-0.258
same,glycan array binding signal (z-score),[53],-0.274
same,glycan array binding signal (z-score),[54],-0.265
same,glycan array binding signal (z-score),[55],-0.302
same,glycan array binding signal (z-score),[56],0.016
same,glycan array binding signal (z-score),[57],0.952
same,glycan array binding signal (z-score),[58],0.768
same,glycan array binding signal (z-score),[59],1.05
same,glycan array binding signal (z-score),[60],-0.284
